We go through 83 compounds from PubChem BioAssay AID1346428 (National Center for Advancing Translational Sciences (NCATS), 2018).

Each structure is given as a SMILES string. Out of some 48,000 compounds screened, about 1,200 (2.5%) were called active. Another 2% or so got no clear call; they are omitted.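 Rule for the calls: active = activation of at least 60% and not above a set upper limit (about 1 call in 100 departs from these limits); inconclusive = activation of 40% to 60%, or above that upper limit; inactive = activation under 40%.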 The list shows a part of the results.

The experiment deals with Probable G-protein coupled receptor 32 (Homo sapiens) (UniProt O75388). Kind of experiment: qHTS for Agonists of Human Resolvin D1 Receptor DRV1. Note: 0% is about no effect. The following applies: CHO-K1 GPR32 beta-arrestin PathHunter luminescence, 90 min; at 76.9 µM; stronger effect = higher value; zero percent set by DMSO-only wells. In a few lines: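 CHO-K1 cells stably expressing ProLink-tagged GPR32 and Enzyme Activator-tagged beta-arrestin were seeded at 2,500 cells/well overnight, exposed to compounds for 90 min at 37 °C, then read by beta-Gal complementation chemiluminescence after 1 h detection reagent.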
UniProt O75388, sequence (O75388 whole entry, looked up): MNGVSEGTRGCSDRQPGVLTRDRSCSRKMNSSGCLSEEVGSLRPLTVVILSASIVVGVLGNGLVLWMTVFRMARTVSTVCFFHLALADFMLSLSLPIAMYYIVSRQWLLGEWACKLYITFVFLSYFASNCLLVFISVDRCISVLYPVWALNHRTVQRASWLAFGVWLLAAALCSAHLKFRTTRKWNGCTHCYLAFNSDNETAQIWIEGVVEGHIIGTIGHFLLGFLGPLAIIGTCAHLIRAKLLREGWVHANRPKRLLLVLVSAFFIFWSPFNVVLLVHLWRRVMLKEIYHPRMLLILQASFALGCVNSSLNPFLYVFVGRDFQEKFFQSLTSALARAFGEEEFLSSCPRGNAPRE
For orientation: In qHTS, concentration-response curves come from the screen itself.
Consider `Cc1nn(C)c2c1c(-c1ccccc1)cc(=O)n2Cc1ccc(F)cc1`, for which the activation was inactive: -4.36%.

Take `COc1ccc(-n2nc3ccc(NC(=O)c4cccc(OCCC(C)C)c4)cc3n2)cc1`: the activation was inactive: -5.99%.

Turning to `COc1ccc(-n2cc(-c3ccc4c(c3)OCO4)n(CC(=O)Nc3cc(Cl)ccc3C)c2=O)cc1`, the activation was inactive: -3.96%.

Regarding `COc1ccccc1CNC(=O)C(NS(=O)(=O)c1ccc2c(c1)CCN2C(C)=O)C(C)C` (stereo not drawn), the activation is inactive: -13.8%.

For `CCOC(=O)c1cnc2ccc(OC)cc2c1Nc1ccc(OCc2ccccc2Cl)cc1`, the activation is inactive: -3.13%.

Turning to `Cc1ccc(NC(=O)CCC(=O)N2Cc3ccccc3Oc3ncccc32)cc1Cl`, the activation is inactive: -16.9%.

In the case of `COc1ccc(CNC(=O)c2cnc(N3CCCC3)nc2C)c(OC)c1`, the activation is inactive: -9.32%.

`COc1ccc(C)cc1NC(=O)c1nnn(Cc2cccc(Br)c2)c1N`: the activation was inactive: 42.1%.

For `COc1ccc(C2=NS(=O)(=O)N(C)C(C(=O)NC(C)c3ccccc3)=C2)cc1` (stereo not drawn), the activation was inactive: -21.4%.

With `COc1ccc(-c2nc3sc(CCNC(=O)Cc4ccccc4)c(C)n3n2)cc1`, the activation was inactive: -14.6%.

On to `CCOC(=O)c1cc(-c2ccccc2)n(CCC(=O)NCCc2ccccc2)c1C`, for which the activation is inactive: -25.9%.

For `CCN(C(=O)CSc1nc2ccccc2n1CC(=O)N(C)C1CCCCC1)c1ccccc1`, the activation is inactive: 0.241%.

On to `CCCS(=O)(=O)N1CCC(n2c(C)nc3cccnc32)CC1`, for which the activation was inactive: 19.6%.

In the case of `CCN(CC)S(=O)(=O)c1ccc2c(c1)N(CC(=O)NCCCN1CCN(c3ccc(OC)cc3)CC1)C(=O)CO2`, the activation was inactive: -11.9%.

In the case of `Cc1ccc2oc(C(=O)Nc3ccc(S(=O)(=O)N4CCCCC4C)cc3)cc(=O)c2c1` (stereo not drawn), the activation was inactive: -8.31%.

Take `CCc1ccc(C(=O)c2cn(CC(=O)Nc3cc(OC)ccc3OC)c3ccc(Cl)cc3c2=O)cc1`: the activation was inactive: 40.4%.

Regarding `COc1ccccc1C(=O)OCc1cc(=O)n2nc(C3CCCCC3)sc2n1`, the activation is inactive: 0.859%.

With `Cc1cccc(NC(=O)CN2C(=O)c3ccccc3Sc3ncccc32)c1C`, the activation is inactive: -6.59%.

With `CCn1c(NCc2ccc(OC)c(OC)c2)nc2ccccc21`, the activation was inactive: -0.545%.

`OC[C@H]1O[C@@H](n2cnc3c(Nc4ccccc4)ncnc32)[C@H](O)[C@@H]1O`: the activation is inactive: 2.49%.

On to `Cc1noc2ncnc(N3CCCC(C(=O)NC(C)C)C3)c12` (stereo not drawn), for which the activation was inactive: 16.6%.

In the case of `Cc1ccc(Cl)cc1N1CCN(CCCNc2ncnc3onc(-c4ccc(Cl)cc4)c23)CC1`, the activation was inactive: -1.17%.

Consider `COc1ccc(CCNC(=O)CSC2=Nc3ccccc3C3=NC(CCC(=O)NCc4ccccc4)C(=O)N23)cc1OC` (stereo not drawn), for which the activation was inactive: -2.12%.

In the case of `CCOc1ccccc1CNC(=O)c1ccc2c(c1)sc1nc(-c3ccccc3)cn12`, the activation is inactive: -9.3%.

As to `Cc1cccc(CCNC(=O)C2CCN(c3ncnc4c3nc3n4CCCCC3)CC2)c1`, the activation is inactive: -0.0195%.

Consider `C/C(=C\c1ccc(C(=O)O)cc1)c1ccc2c(c1)C(C)(C)CCC2(C)C`, for which the activation is inactive: -10.8%.

For `CCOC(=O)c1cc(-c2ccccc2)n(CCC(=O)Nc2cc(OCC)ccc2OCC)c1C`, the activation was inactive: -20.7%.

Take `CCCCCn1c(CCCNC(=O)c2cccc(C)c2)nc2ccccc21`: the activation was inactive: -6.6%.

For the compound `Nc1ccc(CCNc2ncnc3c2ncn3C2OC(CO)C(O)C2O)cc1` (stereo not drawn), the activation was inactive: -6.28%.

On to `COc1ccc(OC)c(CNC(=O)c2cc3ccc4cccnc4c3[nH]2)c1`, for which the activation is inactive: -10.3%.

For the compound `Cc1nn2c(=O)cc(COC(=O)c3ccc(NC(=O)COc4ccc(Cl)cc4)cc3)nc2s1`, the activation was inactive: 19.7%.

In the case of `CCn1nnc2cc(C(=O)Nc3ccc(C)cc3Br)ccc21`, the activation was inactive: -0.117%.

Consider `CC1CCN(S(=O)(=O)c2ccc3nc(NCc4ccc(F)cc4)ccc3c2)CC1`, for which the activation was inactive: 1.71%.

As to `COc1ccc(C)cc1NC(=O)C(=O)NCCc1csc2nc(-c3ccccc3F)nn12`, the activation is inactive: -10.9%.

As for `O=c1c2oc3ccccc3c2n(Cc2ccccc2)c(=O)n1Cc1ccco1`, the activation is inactive: -6.75%.

As to `O=C(Cn1nnc2sc(-c3ccccc3)cc2c1=O)Nc1cccc(C(F)(F)F)c1`, the activation was inactive: -31.1%.

For `CC(C)(C)OC(=O)N1CCC(c2nnc(SCc3ccccc3F)o2)CC1`, the activation is inactive: 7.61%.

On to `CCOc1ccc(CCNc2ncnc3onc(-c4ccc(Cl)cc4)c23)cc1`, for which the activation was inactive: -3.07%.

`Cc1cccc(-c2nc3scc(CCNS(=O)(=O)c4ccc(F)cc4C)n3n2)c1`: the activation was inactive: 2.94%.

On to `Cc1ccc(NC(=O)c2cc(S(=O)(=O)NCCC3=CCCCC3)ccc2F)cc1C`, for which the activation is inactive: -22.8%.

For `CCc1ccccc1NC(=O)CN(c1ccc(OC)cc1)S(=O)(=O)c1c(C)n[nH]c1C`, the activation was inactive: -1.17%.

`Cc1c(NC(=O)c2cc(-c3ccc(Br)cc3)on2)c(=O)n(-c2ccccc2)n1C`: the activation was inactive: 1.83%.

Take `Cc1oc(-c2ccccc2)nc1CNC(=O)NC1CCCCC1`: the activation was inactive: -14.7%.

On to `COc1ccc(Nc2sc(C(=O)c3ccccc3)c(N)c2C(=O)Nc2cc(C)ccc2C)c(OC)c1`, for which the activation was inactive: 3.1%.

Take `Cc1ccn2c(c1)nc(=O)c1cc(S(=O)(=O)N3CCCCC3)c(Cl)cc12`: the activation was inactive: -7.95%.

For the compound `CCc1ccc(NC(=O)c2sc3nc(C)c(C(=O)Nc4ccc(C)cc4C)c(-c4ccco4)c3c2N)cc1`, the activation is inactive: -3.78%.

Take `CCOC(=O)c1c(NC(=O)/C=C/c2ccc(OCC)c(OC)c2)sc2c1CCC2`: the activation was inactive: -5.26%.

Turning to `COc1cccc(CNC(=O)CCCN2C(=O)CSc3c2c(C)nn3-c2ccccc2)c1OC`, the activation is inactive: -15.9%.

Take `CCN1C(=O)c2ccccc2S(=O)c2ccc(C(=O)N3CCN(c4ccccc4)CC3)cc21` (stereo not drawn): the activation was inactive: -16%.

As to `Cc1ccc(S(=O)(=O)c2nnn3c2nc(N2CCC(C)CC2)c2cc(Cl)ccc23)cc1C`, the activation is inactive: -3.04%.

Regarding `COc1ccc(-c2nc3nc(C)cc(Nc4cccc(C(F)(F)F)c4)n3n2)cc1`, the activation is inactive: -4.81%.

In the case of `Cc1ccc(CNC(=O)Cn2cc(S(=O)(=O)Cc3cccc(Cl)c3)c3ccccc32)cc1`, the activation was inactive: 40.2%.

As for `COc1ccc(NC(=O)COc2ccc(S(=O)(=O)NC3CCCCC3)cc2)c(OC)c1`, the activation was inactive: -1.18%.

For `O=C(CCCc1nc(-c2ccccc2)no1)Nc1cc(C(F)(F)F)cc(C(F)(F)F)c1`, the activation is inactive: 21.7%.

For `O=C(Nc1nnc(S(=O)(=O)N2CCCCC2)s1)c1ccc(F)cc1`, the activation is inactive: 13.3%.

Take `Cc1cc(C)c(Cn2c3ccccc3c3cnn(CC(=O)NCc4ccc(Cl)cc4)c(=O)c32)c(C)c1`: the activation is inactive: -14.2%.

`Cc1noc(Cn2c(=O)c3ccccc3n(CC(=O)Nc3ccc(F)cc3F)c2=O)n1`: the activation is inactive: -19.5%.

Regarding `CC1=C(C(=O)Nc2ccccc2C)C(c2ccco2)n2ncnc2N1` (stereo not drawn), the activation is inactive: 8.27%.

For `CCOc1ccc(NC(=O)c2cc(S(=O)(=O)N3CCCC3)c[nH]2)cc1`, the activation is inactive: -4.55%.

On to `Cc1sc(-n2cccc2)c(C(C)NC(=O)Nc2ccccc2Cl)c1C` (stereo not drawn), for which the activation was inactive: -16.7%.

Turning to `COC(=O)c1ccccc1NC(=O)c1cc2c(s1)-c1ccccc1OC2`, the activation is inactive: -1.2%.

Consider `CCOc1ccc(CCNC(=O)c2ccc3c(c2)N(Cc2ccccc2)C(=O)c2ccccc2S3=O)cc1OCC` (stereo not drawn), for which the activation is inactive: -9.2%.

Take `O=C(CN(c1cc(C(F)(F)F)ccc1Cl)S(=O)(=O)c1ccccc1)NCCc1ccccc1`: the activation is inactive: -1.86%.

With `COc1ccc(-c2c(C#N)c(SCC(=O)Nc3ccc(Br)cc3)nc(C)c2C(=O)Nc2ccccc2)cc1`, the activation is inactive: -22%.

With `OC(CN1CCN(c2cccc(Cl)c2)CC1)C(c1ccccc1)c1ccccc1` (stereo not drawn), the activation was inactive: 6.8%.

Regarding `O=C(CSc1nc(-c2ccccc2)c2ccccc2n1)Nc1ccc(F)cc1`, the activation was inactive: -9.69%.

In the case of `CC1=C(C(=O)N2CCCCC2)C(c2cccc(Cl)c2)n2c(nc3ccccc32)N1` (stereo not drawn), the activation was inactive: -9.62%.

For the compound `Cc1cc(C)c(S(=O)(=O)NCCc2cc3ccc(C)cc3[nH]c2=O)c(C)c1`, the activation was inactive: -4.41%.

Turning to `CCN(CC)CCCNC(=O)C1CCN(S(C)(=O)=O)CC1`, the activation was inactive: -0.0455%.

With `Cc1c(C)n(Cc2ccccc2)c2ccc(C(=O)NCc3ccc(OC(C)C)cc3)cc12`, the activation is inactive: -15.9%.

Consider `CCc1nnc2c3ccccc3nc(Nc3ccccc3OC)n12`, for which the activation is inactive: -9.08%.

As to `Cc1cccc(N2CCN(S(=O)(=O)c3ccc4oc(=O)c5ncn(C)c5c4c3)CC2)c1C`, the activation was inactive: 9.09%.

For `O=C(CCCCn1c(=O)c2ccccc2n(CC(=O)Nc2ccccc2)c1=O)NCc1ccccc1Cl`, the activation was inactive: 3.31%.

For `CCOc1ccc(C(=O)Nc2ccc(-c3nc4cc(C)ccc4o3)cc2)cc1`, the activation was inactive: -0.698%.

For `CCOC(=O)c1sc(NC(=O)C(C)Sc2nc(-c3ccccc3)cc(C(F)(F)F)n2)c(C(=O)OC)c1C` (stereo not drawn), the activation was inactive: 7.2%.

For the compound `Cc1oc(-c2ccc(C(=O)Nc3cccc(C(F)(F)F)c3)cc2)nc1CSc1ccccc1`, the activation was inactive: -16.3%.

In the case of `COc1ccc(Nc2nc3ccc(Cl)cc3n3nnnc23)cc1OC`, the activation was inactive: 1.65%.

For `CCCC(=O)C1=C(c2ccc(C)cc2)N(C(=O)CCC)n2cnnc2S1`, the activation was inactive: -46.6%.

On to `COc1ccc(-c2nc3scc(CCNS(=O)(=O)c4ccc(F)c(C(F)(F)F)c4)n3n2)cc1OC`, for which the activation was inactive: -9.69%.

In the case of `CCN1CCN(c2cc(C)c3cc(NC(=O)c4cccc(Cl)c4)ccc3n2)CC1`, the activation is inactive: -16.6%.

Regarding `O=C(Oc1ccccc1Cl)c1cc(-c2ccc3c(c2)OCCO3)on1`, the activation was inactive: 2.04%.

`Cc1ccc(NC(=O)c2cnc(N3CCCCC3)c3ccccc23)cc1Cl`: the activation was inactive: -23.5%.

For the compound `Cc1ccc(OCCn2cc(C(=O)c3ccco3)c3ccccc32)cc1C`, the activation is inactive: -12.1%.
